Assay [1] has as its system HSkMC (human skeletal muscle cells). Put plainly: cytotoxicity call (relative viability < 0.9). Particulars: 10 µM.
The subject of assay [2] is HepG2. Put plainly: cytotoxicity call (relative viability < 0.9). Particulars: 10 µM.
The test system of assay [3] is S. aureus RN4220. In words: growth inhibition call (relative growth <= 0.2). Particulars: 50 µM.

This is one part of the list.

As to `C[C@@H]1CN([C@H](C)CO)C(=O)c2cc(NC(=O)Cc3ccccc3)ccc2O[C@@H](C)CCCCO[C@@H]1CN(C)Cc1ccccc1`, the cytotoxicity call in assay [1] and in assay [2] was “inactive” each time. Moreover, in assay [3], the growth inhibition call is “inactive”.
Regarding `C[C@@H]1CN([C@H](C)CO)S(=O)(=O)c2ccc(C#CC3(O)CCCC3)cc2O[C@@H]1CN(C)C(=O)Nc1ccc(F)cc1`, the cytotoxicity call in assay [1] and in assay [2] was “inactive” in each case. The growth inhibition call in assay [3] was “inactive”.
For `O=C(C[C@@H]1CC[C@@H]2[C@H](COC[C@H](O)CN2S(=O)(=O)c2cccc(F)c2)O1)NCCCN1CCOCC1`, the cytotoxicity call in assay [1] and in assay [2] was “inactive” each time. For the same molecule, in assay [3], the growth inhibition call is “inactive”.
Regarding `C[C@H]1CN([C@@H](C)CO)C(=O)c2cccc(NC(=O)c3ccc(-c4nccs4)cc3)c2O[C@H]1CN(C)C(=O)Nc1ccc2c(c1)OCO2`, the cytotoxicity call in assay [1] and in assay [2] was “inactive” in each case. Moreover, in assay [3], the growth inhibition call is “inactive”.
Consider `Cc1noc(C)c1NC(=O)Nc1ccc2c(c1)CC(=O)N([C@H](C)CO)C[C@@H](C)[C@@H](CN(C)CC1CC1)O2`, for which the cytotoxicity call in assay [1] and in assay [2] was “inactive” in each case. Also, the growth inhibition call in assay [3] is “inactive”.
As to `CC(C)N=c1cc2n(-c3ccc(Cl)cc3)c3ccccc3nc-2cc1Nc1ccc(Cl)cc1`, the cytotoxicity call in assay [1] is “inactive”. Further, the cytotoxicity call in assay [2] was “active”. In addition, the growth inhibition call in assay [3] is “inactive”.

Values taken from the antibiotic and cytotoxicity screens of Wong et al. (2023).
